Results on 12 molecules are retold here after publication PMC6168461, “Molecular architecture and regulation of BCL10-MALT1 filaments” (Nature Communications, 2018).

The chains behind the UniProt entries cited, without tags or fusion partners. Where a name states a change or a piece, a line headed by the entry shows the natural chain unless it says otherwise. A line that says so, or that is headed by a name, gives the form on record, which may keep a tag or linker.
UniProt Q9UDY8: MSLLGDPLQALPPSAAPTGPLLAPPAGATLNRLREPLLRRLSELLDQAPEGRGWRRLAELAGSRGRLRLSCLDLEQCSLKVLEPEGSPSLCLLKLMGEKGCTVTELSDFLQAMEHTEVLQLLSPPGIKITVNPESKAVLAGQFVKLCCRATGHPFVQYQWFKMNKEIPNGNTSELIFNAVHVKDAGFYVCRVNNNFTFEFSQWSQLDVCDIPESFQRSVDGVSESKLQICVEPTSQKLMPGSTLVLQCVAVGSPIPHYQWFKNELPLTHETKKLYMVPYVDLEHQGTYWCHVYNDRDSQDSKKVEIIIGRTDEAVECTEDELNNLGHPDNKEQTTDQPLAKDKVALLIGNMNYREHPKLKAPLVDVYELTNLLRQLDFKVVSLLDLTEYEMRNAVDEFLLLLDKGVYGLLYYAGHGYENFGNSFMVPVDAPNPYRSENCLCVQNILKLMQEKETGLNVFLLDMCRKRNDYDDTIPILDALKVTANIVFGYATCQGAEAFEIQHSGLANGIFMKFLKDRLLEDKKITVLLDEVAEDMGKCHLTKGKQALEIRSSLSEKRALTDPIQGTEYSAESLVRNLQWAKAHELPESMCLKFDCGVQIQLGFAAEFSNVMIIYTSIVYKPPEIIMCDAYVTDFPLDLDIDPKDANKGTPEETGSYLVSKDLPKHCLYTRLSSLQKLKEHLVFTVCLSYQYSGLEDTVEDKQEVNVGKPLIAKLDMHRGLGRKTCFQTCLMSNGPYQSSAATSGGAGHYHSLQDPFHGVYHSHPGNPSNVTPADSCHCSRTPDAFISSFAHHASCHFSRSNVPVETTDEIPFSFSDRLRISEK
MALT1 C77A (Q9UDY8-2, form named): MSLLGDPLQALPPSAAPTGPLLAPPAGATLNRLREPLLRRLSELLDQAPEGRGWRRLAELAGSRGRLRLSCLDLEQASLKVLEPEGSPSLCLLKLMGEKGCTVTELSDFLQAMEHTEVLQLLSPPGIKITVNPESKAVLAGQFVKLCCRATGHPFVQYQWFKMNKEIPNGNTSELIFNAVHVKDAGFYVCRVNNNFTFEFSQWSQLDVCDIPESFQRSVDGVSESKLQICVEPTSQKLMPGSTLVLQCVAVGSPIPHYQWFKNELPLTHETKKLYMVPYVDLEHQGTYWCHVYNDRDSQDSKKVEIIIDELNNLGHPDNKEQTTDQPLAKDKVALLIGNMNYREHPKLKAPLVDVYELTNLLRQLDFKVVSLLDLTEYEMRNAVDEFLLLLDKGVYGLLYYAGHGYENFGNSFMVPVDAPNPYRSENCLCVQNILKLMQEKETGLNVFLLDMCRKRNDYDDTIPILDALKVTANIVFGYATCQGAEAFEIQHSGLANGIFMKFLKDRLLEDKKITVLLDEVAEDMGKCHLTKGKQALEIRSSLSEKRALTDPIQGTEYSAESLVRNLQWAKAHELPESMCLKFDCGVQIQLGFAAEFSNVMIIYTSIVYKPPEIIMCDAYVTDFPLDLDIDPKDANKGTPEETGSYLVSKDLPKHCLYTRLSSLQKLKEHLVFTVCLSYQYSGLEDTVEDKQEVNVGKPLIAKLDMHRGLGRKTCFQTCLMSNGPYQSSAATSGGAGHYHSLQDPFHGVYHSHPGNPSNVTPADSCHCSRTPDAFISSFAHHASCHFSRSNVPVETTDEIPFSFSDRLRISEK
MALT1 Q76A/E98R (Q9UDY8-2, form named): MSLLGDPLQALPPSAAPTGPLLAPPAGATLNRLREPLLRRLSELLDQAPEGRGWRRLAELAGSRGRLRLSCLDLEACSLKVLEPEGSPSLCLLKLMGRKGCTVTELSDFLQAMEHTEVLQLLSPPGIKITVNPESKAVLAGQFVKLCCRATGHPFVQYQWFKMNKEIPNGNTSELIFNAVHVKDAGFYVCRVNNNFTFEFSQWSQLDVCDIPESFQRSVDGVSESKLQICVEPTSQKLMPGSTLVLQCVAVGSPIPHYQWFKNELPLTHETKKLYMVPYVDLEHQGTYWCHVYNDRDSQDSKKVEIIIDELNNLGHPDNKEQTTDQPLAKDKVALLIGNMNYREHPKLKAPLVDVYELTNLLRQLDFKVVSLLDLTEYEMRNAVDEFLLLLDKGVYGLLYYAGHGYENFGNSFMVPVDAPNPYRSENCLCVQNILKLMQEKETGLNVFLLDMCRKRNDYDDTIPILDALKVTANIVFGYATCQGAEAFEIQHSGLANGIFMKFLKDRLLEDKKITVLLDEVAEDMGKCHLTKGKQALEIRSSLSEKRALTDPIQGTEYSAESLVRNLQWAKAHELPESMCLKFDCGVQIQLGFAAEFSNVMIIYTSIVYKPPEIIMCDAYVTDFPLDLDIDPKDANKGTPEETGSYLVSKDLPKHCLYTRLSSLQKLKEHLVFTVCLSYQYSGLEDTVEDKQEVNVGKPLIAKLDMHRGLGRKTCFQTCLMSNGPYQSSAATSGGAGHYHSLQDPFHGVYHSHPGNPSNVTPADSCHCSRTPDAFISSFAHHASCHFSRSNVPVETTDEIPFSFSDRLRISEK
MALT1 isoform B L82D with C-terminal Flag-Strep-Strep tag (Q9UDY8-2, form named): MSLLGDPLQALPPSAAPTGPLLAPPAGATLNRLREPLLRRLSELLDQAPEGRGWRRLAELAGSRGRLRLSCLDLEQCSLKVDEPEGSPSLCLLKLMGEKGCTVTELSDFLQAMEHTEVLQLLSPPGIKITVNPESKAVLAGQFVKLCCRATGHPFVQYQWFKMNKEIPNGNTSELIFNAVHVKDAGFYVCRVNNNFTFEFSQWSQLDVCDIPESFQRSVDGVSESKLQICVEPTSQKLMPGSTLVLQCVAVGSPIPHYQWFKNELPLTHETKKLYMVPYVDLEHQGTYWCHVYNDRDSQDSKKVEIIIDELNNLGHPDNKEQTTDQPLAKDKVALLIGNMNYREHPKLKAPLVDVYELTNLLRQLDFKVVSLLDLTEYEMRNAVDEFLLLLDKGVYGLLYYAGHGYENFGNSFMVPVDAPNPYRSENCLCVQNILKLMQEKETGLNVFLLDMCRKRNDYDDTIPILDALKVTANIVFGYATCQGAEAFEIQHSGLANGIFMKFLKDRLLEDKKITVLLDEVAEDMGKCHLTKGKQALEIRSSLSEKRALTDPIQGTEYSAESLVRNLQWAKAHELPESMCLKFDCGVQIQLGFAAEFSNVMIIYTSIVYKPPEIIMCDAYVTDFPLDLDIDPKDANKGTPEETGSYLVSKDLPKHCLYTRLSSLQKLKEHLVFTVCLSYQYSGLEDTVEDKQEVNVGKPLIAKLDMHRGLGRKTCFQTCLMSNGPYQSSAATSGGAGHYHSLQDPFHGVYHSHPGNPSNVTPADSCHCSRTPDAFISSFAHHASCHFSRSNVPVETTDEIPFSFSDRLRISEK
MALT1 isoform B V81R with C-terminal Flag-Strep-Strep tag (Q9UDY8-2, form named): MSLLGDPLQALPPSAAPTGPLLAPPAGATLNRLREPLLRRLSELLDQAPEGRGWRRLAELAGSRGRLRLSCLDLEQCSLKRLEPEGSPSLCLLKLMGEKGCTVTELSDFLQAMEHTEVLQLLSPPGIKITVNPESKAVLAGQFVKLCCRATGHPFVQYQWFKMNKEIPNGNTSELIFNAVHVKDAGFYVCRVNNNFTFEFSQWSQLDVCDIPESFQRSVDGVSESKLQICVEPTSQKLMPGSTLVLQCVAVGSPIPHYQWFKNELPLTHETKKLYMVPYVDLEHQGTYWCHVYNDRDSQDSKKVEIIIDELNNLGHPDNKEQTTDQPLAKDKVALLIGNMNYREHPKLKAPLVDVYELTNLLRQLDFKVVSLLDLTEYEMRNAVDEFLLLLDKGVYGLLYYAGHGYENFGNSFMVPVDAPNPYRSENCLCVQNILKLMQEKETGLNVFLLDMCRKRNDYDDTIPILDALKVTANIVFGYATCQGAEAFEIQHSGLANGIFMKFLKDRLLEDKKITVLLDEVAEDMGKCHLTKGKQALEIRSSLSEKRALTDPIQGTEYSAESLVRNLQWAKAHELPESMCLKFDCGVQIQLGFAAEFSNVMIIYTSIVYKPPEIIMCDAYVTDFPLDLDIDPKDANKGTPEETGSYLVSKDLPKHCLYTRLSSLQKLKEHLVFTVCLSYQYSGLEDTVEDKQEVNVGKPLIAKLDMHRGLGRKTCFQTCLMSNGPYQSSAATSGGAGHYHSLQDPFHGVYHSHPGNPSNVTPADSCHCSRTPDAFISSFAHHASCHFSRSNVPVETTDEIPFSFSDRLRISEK
MALT1 isoform B wt with C-terminal Flag-Strep-Strep tag (Q9UDY8-2, form named): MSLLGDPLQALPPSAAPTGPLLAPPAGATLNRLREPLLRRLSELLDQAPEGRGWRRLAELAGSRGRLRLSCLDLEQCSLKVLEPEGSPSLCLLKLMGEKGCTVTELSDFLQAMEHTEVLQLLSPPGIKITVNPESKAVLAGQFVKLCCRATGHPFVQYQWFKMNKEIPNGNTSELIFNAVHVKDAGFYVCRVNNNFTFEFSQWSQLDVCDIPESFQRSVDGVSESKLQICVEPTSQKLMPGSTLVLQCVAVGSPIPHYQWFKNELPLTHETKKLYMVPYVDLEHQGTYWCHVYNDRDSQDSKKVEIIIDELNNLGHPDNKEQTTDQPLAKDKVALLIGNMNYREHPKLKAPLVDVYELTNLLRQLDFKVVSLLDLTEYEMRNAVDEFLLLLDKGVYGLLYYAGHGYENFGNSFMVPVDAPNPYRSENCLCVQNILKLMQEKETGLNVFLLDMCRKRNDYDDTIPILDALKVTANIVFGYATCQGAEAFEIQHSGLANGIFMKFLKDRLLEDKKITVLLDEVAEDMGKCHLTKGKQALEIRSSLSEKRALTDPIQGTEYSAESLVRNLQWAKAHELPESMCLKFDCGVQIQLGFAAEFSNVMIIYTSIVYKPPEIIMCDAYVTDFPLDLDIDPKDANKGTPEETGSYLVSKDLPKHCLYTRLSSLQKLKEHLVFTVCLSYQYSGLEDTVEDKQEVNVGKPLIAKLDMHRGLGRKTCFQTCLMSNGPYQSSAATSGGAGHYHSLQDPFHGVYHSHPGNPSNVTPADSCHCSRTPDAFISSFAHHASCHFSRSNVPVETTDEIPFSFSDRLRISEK

The target in test [1] is T1, tagged BCL10 wt (pEF vector) (human) (UniProt O95999).
T1 sequence: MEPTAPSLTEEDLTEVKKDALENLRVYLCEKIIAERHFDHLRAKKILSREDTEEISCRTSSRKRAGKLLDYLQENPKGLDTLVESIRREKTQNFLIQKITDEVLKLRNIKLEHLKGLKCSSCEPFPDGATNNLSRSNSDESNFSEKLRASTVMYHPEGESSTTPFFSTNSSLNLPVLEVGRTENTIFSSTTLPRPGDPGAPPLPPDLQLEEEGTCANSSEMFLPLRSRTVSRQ
Nature of the test: co-IP; co-IPs of Supplementary Fig. 4d; cells and tags not given.

Test [2] concerns the target T2, BCL10, endogenous in MALT1 KO Jurkat T-cells (human (endogenous in Jurkat)) (UniProt O95999).
T2 sequence: T1 sequence
Nature of the test: co-IP; anti-BCL10 (C-17) IP from lysates of reconstituted BCL10 KO or MALT1 KO Jurkat T-cells, unstimulated or P/I for 20 min; co-IP buffer 25 mM HEPES pH 7.5, 150 mM NaCl, 0.2% NP-40; Western blot. Background: In western blotting, separated proteins are transferred to a membrane and probed.

Test [3] deals with T3, BCL10 L104R with C-terminal Flag-Strep-Strep tag (human) (UniProt O95999).
T3 sequence: T1 sequence with L104R
Nature of the test: pull-down; StrepTactin pull-down (ST-PD) of the Flag-Strep-Strep tagged BCL10 or MALT1 from lysates of reconstituted KO Jurkat T-cells, unstimulated or P/I for 20 min; Western blot.

Test [4] addresses T4, BCL10 R42A with C-terminal Flag-Strep-Strep tag (human) (UniProt O95999).
T4 sequence: T1 sequence with R42A
The test is described as above.

The target of test [5] is T5, BCL10 wt with C-terminal Flag-Strep-Strep tag (human) (UniProt O95999).
T5 sequence: T1 sequence
The description is as above.

Test [6] concerns the target T3, BCL10 L104R with C-terminal Flag-Strep-Strep tag (human). Nature of the test: co-IP; anti-BCL10 (C-17) IP from lysates of reconstituted BCL10 KO or MALT1 KO Jurkat T-cells, unstimulated or P/I for 20 min; co-IP buffer 25 mM HEPES pH 7.5, 150 mM NaCl, 0.2% NP-40; Western blot.
For test [7], the target named is T6, BCL10 R42E with C-terminal Flag-Strep-Strep tag (human) (UniProt O95999).
T6 sequence: T1 sequence with R42E
The test is described as above.

Test [8] deals with T5, BCL10 wt with C-terminal Flag-Strep-Strep tag (human). The description is as above.
Test [9] deals with T7, BCL10 R36E with C-terminal Flag-Strep-Strep tag (human) (UniProt O95999).
T7 sequence: T1 sequence with R36E
Described as above.

The target of test [10] is T1, tagged BCL10 wt (pEF vector) (human). Description: co-IP; HEK293 co-transfected with tagged MALT1B and BCL10 wt and mutant constructs; IP with anti-Flag antibodies, Western blot.
In test [11] the target is T8, tagged BCL10 L104R (pEF vector) (human) (UniProt O95999).
T8 sequence: T1 sequence with L104R
The test is described as above.

In test [12] the target is MALT1 isoform B wt with C-terminal Flag-Strep-Strep tag (human) (UniProt Q9UDY8). Description: pull-down; StrepTactin pull-down (ST-PD) of the Flag-Strep-Strep tagged BCL10 or MALT1 from lysates of reconstituted KO Jurkat T-cells, unstimulated or P/I for 20 min; Western blot.
In test [13] the target is MALT1 isoform B V81R with C-terminal Flag-Strep-Strep tag (human) (UniProt Q9UDY8). The test is described as above.
Test [14] deals with T9, BCL10 R36E, GST-tag removed (human), O95999.
T9 chain: T1 sequence with R36E
Description: dynamic light scattering; BCL10-MALT1 complex fractions at 0.5 μM, filament formation started with equimolar PreScission protease (removal of GST), polymerisation followed over 100 min; both purified. Particulars: remark: other sources report otherwise.

Test [15] concerns the target BCL10 R49E, GST-tag removed (human) (UniProt O95999). Described as above.
Test [16] concerns the target BCL10 R42E, GST-tag removed (human) (UniProt O95999). The description is as above.

Positions count from the first letter of the chain named. In names and notes the source's numbering stands. No constants are given. Whether binding was seen depends on the method and setting. For part of these data: Binding seen in cells or lysates may run through a third protein. Some results given as binding are weak or reduced against the parent protein; the word gives no strength. For part of these data: Tags and fused reporters may be left off the sequences shown.

On to “MALT1 C77A (from UniProt Q9UDY8-2 1-813)”, for which the binding entry in test [1] is recorded as “binds”.

With “MALT1 Q76A/E98R (from UniProt Q9UDY8-2 1-813)”, in test [1], the binding entry was “binds”.

As for “MALT1 isoform B L82D with C-terminal Flag-Strep-Strep tag (from UniProt Q9UDY8-2 1-813)”, in test [2], the binding result is listed as “no binding”.

As to “MALT1 isoform B V81R with C-terminal Flag-Strep-Strep tag (from UniProt Q9UDY8-2 1-813)”, the binding entry in [2] was “no binding”.

As for “MALT1 isoform B wt with C-terminal Flag-Strep-Strep tag (from UniProt Q9UDY8-2 1-813)”, the binding entry in [2] is on record as “binds”.

For the molecule “MALT1, endogenous in Jurkat T-cells (from UniProt Q9UDY8 1-824)”, the binding result is listed as “no binding” in test [3]; “binds” in [4]; “binds” in test [5]; “no binding” in [6]; “binds” in [7]; “binds” in [8]. The binding entry in test [9] is “binds”.

For “tagged MALT1B V81R (pEF vector) (from UniProt Q9UDY8-2 1-813)”, the binding result in [10] is recorded as “no binding”.

As to “tagged MALT1B wt (pEF vector) (from UniProt Q9UDY8-2 1-813)”, the binding result in test [10] is “binds”; in test [11], “no binding”; in test [1], “binds”.

B1: human BCL10 (full length), GST-tag removed (natural protein, UniProt O95999 1-233, looked up)
chain: T1 sequence
notes: BCL10 (B cell lymphoma 10), human, full length; Forms helical filaments together with MALT1 (T29-G722); only residues 10-115 are modelled in the map; also called B cell lymphoma 10; BCL10 wt; not shown: GST, N-terminal, cleaved
B1: the binding entry was “binds” in [12] and “no binding” in test [13].

B2: BCL10 R36E, GST-tag removed, O95999 1-233 (protein)
chain: T1 sequence with R36E
For B2, the binding entry in [14] is reported as “no binding (tested: 0.5 μM)”.

B3: BCL10 R49E, GST-tag removed (protein, UniProt O95999 1-233)
chain: T1 sequence with R49E
B3: in test [15], the binding entry is “no binding (tested: 0.5 μM)”.

B4: BCL10 R42E, GST-tag removed (protein, UniProt O95999 1-233)
chain: T1 sequence with R42E
For the molecule B4, the binding entry in test [16] is given as “no binding (tested: 0.5 μM)”.
